The IC50 comes from the fitted curve, where viability falls to half of the control; a limit (>, <) means that the fit lies beyond the doses tested. For AUC the same curve is integrated over the 256-fold range of doses and scaled to a fraction; it is 1 without any effect and falls as sensitivity rises. For some of these results: The top dose, if marked as inferred, was derived from the fitted curves, not read from the paper. For some of these results: Drugs with an entry number were screened twice under separate entries, and the two screens often disagree.
Assays:
Assay in all cases: Viability of human cancer cell lines after 72 h of drug (GDSC screen)
Elesclomol = compound: CN(NC(=O)CC(=O)NN(C)C(=S)c1ccccc1)C(=S)c1ccccc1 [Elesclomol]; settings: top dose 0.2 µM; top dose inferred
Method: (§1)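 Human cancer cell lines in 384-well plates, medium with 10% serum, drug for 72 h over a 256-fold dose range (nine 2-fold or five 4-fold steps up to the top dose). Adherent lines were fixed and stained with the nucleic acid dye Syto60, suspension lines read with resazurin; signal relative to control wells, capped at 0 and 100%. One two-parameter sigmoid per drug and line, fitted in a mixed model over all curves with the slope shared within a line.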

NSC-87877 = compound: O=S(=O)(O)c1ccc2cc(N=Nc3cc(S(=O)(=O)O)c4cccnc4c3O)ccc2c1 [NSC-87877]; settings: top dose 16 µM; top dose inferred
Method: as §1

OSI-930 = compound: O=C(Nc1ccc(OC(F)(F)F)cc1)c1sccc1NCc1ccnc2ccccc12 [OSI-930]; settings: top dose 10.24 µM
Method: as §1

Bleomycin = compound: Cc1c(N)nc([C@H](CC(N)=O)NC[C@H](N)C(N)=O)nc1C(=O)N[C@H](C(=O)N[C@H](C)[C@@H](O)[C@H](C)C(=O)N[C@H](C(=O)NCCc1nc(-c2nc(C(=O)NCCC[S+](C)C)cs2)cs1)[C@@H](C)O)[C@@H](OC1OC(CO)C(O)C(O)C1OC1OC(CO)C(O)C(OC(N)=O)C1O)c1cnc[nH]1 [Bleomycin]
Method: as §1

VNLG/124 = compound: CCCC(=O)OCc1ccc(OC(=O)/C=C(C)/C=C/C=C(C)/C=C/C2=C(C)CCCC2(C)C)cc1 [VNLG/124]; settings: top dose 5.12 µM; top dose inferred
Method: as §1

LAQ824 = compound: O=C(/C=C/c1ccc(CN(CCO)CCc2c[nH]c3ccccc23)cc1)NO [LAQ824]; settings: top dose 1.024 µM; top dose inferred
Method: as §1

Tamoxifen = compound: CC/C(=C(\c1ccccc1)c1ccc(OCCN(C)C)cc1)c1ccccc1 [Tamoxifen]; settings: top dose 5 µM
Method: as §1

HG-5-88-01 = compound: COc1cc(N2CCC(C(N)=O)CC2)ccc1Nc1nc(N)c(Cl)c(Nc2ccccc2S(=O)(=O)C(C)C)n1 [HG-5-88-01]; settings: top dose 10 µM; top dose inferred
Method: as §1

Masitinib = compound: Cc1ccc(NC(=O)c2ccc(CN3CCN(C)CC3)cc2)cc1Nc1nc(-c2cccnc2)cs1 [Masitinib]; settings: top dose 20 µM
Method: as §1

BX-912 = compound: O=C(Nc1cccc(Nc2ncc(Br)c(NCCc3cnc[nH]3)n2)c1)N1CCCC1 [BX-912]; settings: top dose 10.24 µM; top dose inferred
Method: as §1

[1] = top dose 50 µM, screen: GDSC drug entry 1378, top dose inferred
[2] = top dose 64 µM, screen: GDSC drug entry 190

Cell Line	AUC (Elesclomol)	IC50 (Elesclomol) [µM]	AUC (NSC-87877)	IC50 (NSC-87877) [µM]	AUC (OSI-930)	IC50 (OSI-930) [µM]	AUC (Bleomycin; [1])	IC50 (Bleomycin; [1]) [µM]	AUC (Bleomycin; [2])	IC50 (Bleomycin; [2]) [µM]	AUC (VNLG/124)	IC50 (VNLG/124) [µM]	AUC (LAQ824)	IC50 (LAQ824) [µM]	AUC (Tamoxifen)	IC50 (Tamoxifen) [µM]	AUC (HG-5-88-01)	IC50 (HG-5-88-01) [µM]	AUC (Masitinib)	IC50 (Masitinib) [µM]	AUC (BX-912)	IC50 (BX-912) [µM]
TT2609-C02 (thyroid, adherent)	0.643	0.0321	0.882	> 16	0.963	> 10.2	0.806	27.4	0.154	0.312	0.975	> 5.12	0.256	0.0121	0.985	> 5	0.985	> 10	0.923	> 20	0.8	5.35
H2722 (mesothelioma, adherent)	0.62	0.0285	0.979	> 16	0.974	> 10.2	0.513	3.41	0.561	6.05	0.97	> 5.12	0.575	0.107	0.968	> 5	0.927	> 10	0.871	> 20	0.804	6.33
MOG-G-CCM (glioma, adherent)	0.342	0.00421	0.924	> 16	0.927	> 10.2	0.862	> 50			0.945	> 5.12	0.44	0.0427	0.964	> 5	0.943	> 10	0.876	> 20	0.928	> 10.2
NCI-H345 (small cell lung carcinoma, suspension)	0.969	> 0.2	0.99	> 16	0.982	> 10.2	0.958	> 50	0.972	> 64	0.99	> 5.12	0.789	0.478	0.989	> 5	0.968	> 10	0.99	> 20	0.987	> 10.2
BE-13 (lymphoblastic leukaemia, suspension)	0.874	0.173	0.983	> 16	0.894	> 10.2	0.916	> 50	0.246	0.79	0.968	> 5.12	0.36	0.027	0.974	> 5	0.918	> 10	0.783	7.86	0.36	0.27
LS-513 (large intestine, adherent)	0.811	0.112	0.984	> 16	0.948	> 10.2	0.606	6.17	0.742	20.3	0.987	> 5.12	0.704	0.246	0.986	> 5	0.813	5.69	0.908	> 20	0.909	> 10.2
H9 (lymphoid neoplasm, suspension)	0.897	0.17	0.984	> 16	0.979	> 10.2	0.781	17	0.198	0.637	0.986	> 5.12	0.196	0.01	0.977	> 5	0.973	> 10	0.957	> 20	0.892	8.26
CAL-27 (head and neck, adherent)	0.5	0.0125	0.793	7.44	0.974	> 10.2	0.228	0.497	0.623	8.78	0.964	> 5.12	0.487	0.059	0.926	> 5	0.923	> 10	0.94	> 20	0.853	8.21
ASH-3 (thyroid, adherent)	0.622	0.0271	0.967	> 16	0.982	> 10.2	0.672	9.44	0.639	9.69	0.983	> 5.12	0.578	0.105	0.987	> 5	0.939	> 10	0.983	> 20	0.983	> 10.2
OVTOKO (ovary, adherent)	0.355	0.00442	0.98	> 16	0.966	> 10.2	0.485	2.82	0.333	1.2	0.971	> 5.12	0.445	0.0433	0.963	> 5	0.875	> 10	0.864	> 20	0.949	> 10.2
SNG-M (endometrium, adherent)	0.806	0.0992	0.985	> 16	0.942	> 10.2	0.305	0.899	0.246	0.755	0.986	> 5.12	0.39	0.0322	0.951	> 5	0.889	> 10	0.836	12.9	0.817	5.57
FADU (head and neck, adherent)	0.312	0.0038	0.982	> 16	0.976	> 10.2	0.702	11.3	0.484	3.63	0.981	> 5.12	0.62	0.135	0.954	> 5	0.972	> 10	0.957	> 20	0.944	> 10.2
RERF-LC-Sq1 (lung squamous cell carcinoma, adherent)	0.74	0.0862	0.878	> 16	0.975	> 10.2	0.709	16.2	0.927	> 64	0.977	> 5.12	0.842	> 1.02	0.95	> 5	0.879	> 10	0.915	> 20	0.802	8.14
CAL-12T (non-small cell lung carcinoma, adherent)	0.788	0.0995	0.981	> 16	0.849	9.09	0.605	6.31	0.198	0.444	0.984	> 5.12	0.444	0.044	0.976	> 5	0.916	> 10	0.865	> 20	0.896	> 10.2
NCI-H1792 (lung adenocarcinoma, adherent)	0.859	0.14	0.99	> 16	0.99	> 10.2	0.297	0.895	0.417	2.43	0.99	> 5.12	0.659	0.168	0.98	> 5	0.841	5.96	0.956	> 20	0.881	8.91
RKO (large intestine, adherent)	0.579	0.0202	0.981	> 16	0.939	> 10.2	0.788	20.2	0.234	0.731	0.986	> 5.12	0.376	0.0299	0.987	> 5	0.981	> 10	0.902	> 20	0.791	4.24
AMO-1 (haematopoietic neoplasm, suspension)	0.869	0.142	0.991	> 16	0.975	> 10.2	0.975	> 50	0.886	53.5	0.988	> 5.12	0.292	0.0183	0.978	> 5	0.799	4.02	0.838	10.9	0.85	6.16
NCI-H292 (lung adenocarcinoma, adherent)	0.189	0.00115	0.98	> 16	0.978	> 10.2	0.076	< 0.195	0.308	1.03	0.915	> 5.12	0.552	0.0912	0.904	> 5	0.806	6.44	0.978	> 20	0.908	> 10.2
JURL-MK1 (chronic myeloid leukaemia, suspension)	0.546	0.0167	0.974	> 16	0.85	7.74	0.955	> 50	0.348	1.52	0.976	> 5.12	0.417	0.0379	0.956	> 5	0.984	> 10	0.294	0.329	0.759	3.56
NCI-H1395 (lung adenocarcinoma, adherent)	0.522	0.0146	0.981	> 16	0.957	> 10.2	0.4	1.52	0.874	> 64	0.98	> 5.12	0.904	> 1.02	0.976	> 5	0.98	> 10	0.911	> 20	0.953	> 10.2
RPMI-8402 (T-cell lymphoblastic leukaemia, suspension)	0.865	0.131	0.98	> 16	0.893	8.71	0.891	41.8	0.781	22.3	0.975	> 5.12	0.215	0.0112	0.968	> 5	0.971	> 10	0.814	8.74	0.278	0.17

From the supplement of paper PMC4967469
